{"source": "PubChem BioAssay AID1508649", "about": "(National Center for Advancing Translational Sciences (NCATS), 2021)", "note": "In all, about 43,000 compounds went through this assay and about 830 (1.9%) were called active. Inconclusive results, whose numbers are uncertain, are shown with a selection of clear calls. The calls were made as follows: active = clear falling dose curves in both reporters; inconclusive = both reporters move, but less clearly or upward; inactive = either reporter flat; the % is the NLuc reporter signal. No potency is given beside an inconclusive call; the fits are too rough. % is scaled to controls: 0 for no effect and ±100 for the full control effect; potency is read from the fitted curve at half-maximal effect; tags tell the direction and shape of the fitted curve."}
{"assay": "Cell-based coincidence reporter assay to measure PMP22 gene transcription in S16 Pmp22-F2sN cells - Primary screen", "conditions": "S16 Pmp22-F2sN Schwann cells (luciferase reporters placed in the Pmp22 gene), FLuc/NLuc coincidence luminescence, 24 h; measured here: NLuc reporter readout, at 57.5 µM (top of the series); activity change, negative = inhibition: at the top concentration", "procedure,_shortened": "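Reporter cells (S16 Pmp22-F2sN, 500–1,000 per well) exposed to compounds for 24 h, 37C, 5% CO2; lysis with FLuc read after 10 min, then Stop&Glo and NLuc read after 10 min.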"}
{"smiles": "O=C(NCCc1ccccc1)c1ccc(CSc2nc3ccncc3n2Cc2ccc(F)cc2)cc1", "Potency": "inconclusive [phenotype inactive, single point]"}
{"smiles": "COc1cccc(CNCCSc2nnnn2C)c1OCc1ccccc1F", "Potency": "inconclusive [phenotype inactive, single point]"}
{"smiles": "CCCCOC(=O)c1cccc(NC(=O)c2cc3ccccc3o2)c1", "Potency": "inconclusive [phenotype inactive, single point]"}
{"smiles": "CCS(=O)(=O)c1ncc(N(Cc2ccc(F)cc2)Cc2ccco2)c(C(=O)Nc2cc(C)ccc2C)n1", "activity change, negative = inhibition": "inactive: 1.94%"}
{"smiles": "CC1=Nc2cc(C(=O)NCCc3ccccc3)ccc2Sc2c(C)ccc(C)c21", "Potency": "active: 2.73 µM"}
{"smiles": "CN1CCc2nc3sc(C(=O)Nc4ccccc4OC(F)(F)F)c(N)c3cc2C1", "Potency": "inconclusive [phenotype inactive, single point]"}
{"smiles": "O=C(NCc1ccccc1)c1nc(S(=O)(=O)Cc2ccccc2)ncc1Cl", "Potency": "active: 6.48 µM"}
{"smiles": "Cc1ccccc1C(=O)Nc1c(C)nc(Nc2ccccc2)nc1Nc1ccccc1", "Potency": "inconclusive [phenotype inactive, single point]"}
{"smiles": "COc1ccc(-c2nsc(NC(=O)C(C)Oc3ccc(Cl)c(C)c3)n2)cc1", "note": "(stereo not drawn)", "activity change, negative = inhibition": "inactive: -0.43%"}
{"smiles": "O=C(Cn1c(SCCOc2ccc(Cl)cc2)nc2ccccc21)N1CCCCC1", "Potency": "inconclusive [phenotype inactive, single point]"}
{"smiles": "Cc1ccc(CNc2ncnc3onc(-c4ccc(F)cc4)c23)cc1", "Potency": "inconclusive [phenotype inactive, single point]"}
{"smiles": "CCN(C(=O)Cn1cnc2onc(-c3ccc(F)cc3)c2c1=O)c1ccc(OC)cc1", "activity change, negative = inhibition": "inactive: -24%"}
{"smiles": "CCn1c(=O)cc(OCC(=O)N2CCN(c3ccc(OC)cc3)CC2)c2ccccc21", "activity change, negative = inhibition": "inactive: -45.4%"}
{"smiles": "COCCNC(=O)CCCn1c(SCc2ccccc2Cl)nc2c(sc3ccccc32)c1=O", "Potency": "inconclusive [phenotype inactive, single point]"}
{"smiles": "CC1=C(C(=O)Nc2ccccc2)C(c2cc(Br)ccc2F)n2ncc(C(=O)Nc3ccccc3)c2N1", "note": "(stereo not drawn)", "activity change, negative = inhibition": "inactive: 2.48%"}
{"smiles": "COc1cc(OC)c(NC(=O)Cc2ccc(-n3c(C)nc4cccnc43)cc2)cc1Cl", "Potency": "inconclusive [phenotype inactive, partial curve]"}
{"smiles": "O=C(c1cccs1)c1cn(CCOc2ccccc2Cl)c2ccccc12", "Potency": "inconclusive [phenotype inactive, single point]"}
{"smiles": "Cc1cc(OCC(=O)N(Cc2ccc(N(C)C)cc2)C2CCS(=O)(=O)C2)cc(C)c1Cl", "note": "(stereo not drawn)", "Potency": "inconclusive [phenotype inactive, single point]"}
{"smiles": "Cc1ccc(C)c(N2CCN(C(=O)c3cc(S(=O)(=O)N4CCC(C)CC4)cn3C)CC2)c1", "activity change, negative = inhibition": "inactive: -16.8%"}
{"smiles": "Cc1cccc(N2CCN(C(=O)C3CCN(S(=O)(=O)c4c(C)noc4C)CC3)CC2)c1C", "activity change, negative = inhibition": "inactive: -6.58%"}
{"smiles": "O=C(CN1C(=O)COc2ccc(S(=O)(=O)N3CCCCCC3)cc21)N1CCN(c2cccc(C(F)(F)F)c2)CC1", "Potency": "inconclusive [phenotype inactive, partial curve, poor fit]"}
{"smiles": "CCC(C)NC(=O)c1[nH]c2cc(C)ccc2c1Sc1ccc(Cl)cc1", "note": "(stereo not drawn)", "activity change, negative = inhibition": "inactive: -4.67%"}
{"smiles": "Cc1ccc(-c2cc3nccc(-c4cc([N+](=O)[O-])ccc4O)n3n2)cc1", "Potency": "inconclusive [phenotype inactive, single point]"}
{"smiles": "COc1ccc(C2=NC(C)(C)N(CC(=O)Nc3cc(OC)cc(OC)c3)C2=O)cc1", "activity change, negative = inhibition": "inactive: -10.7%"}
{"smiles": "CCOC(=O)CCCCN(Cc1ccccc1F)S(=O)(=O)c1ccc(F)c(C(=O)Nc2cc(Cl)cc(Cl)c2)c1", "Potency": "inconclusive [phenotype inactive, single point]"}
{"smiles": "COc1ccc(OC)c(-c2csc(-c3c(N)c(C(=O)c4ccc(Cl)cc4)n4ccccc34)n2)c1", "Potency": "inconclusive [phenotype inactive, full curve, poor fit]"}
{"smiles": "CC(C)c1ccc(NC(=O)c2cnc3sc(N4CCCC4)nn3c2=O)cc1", "activity change, negative = inhibition": "inactive: -2.42%"}
{"smiles": "Cc1ccc(C)c(Cn2c(=O)n(CCCC(=O)NCCc3ccc(Cl)cc3)c(=O)c3ccccc32)c1", "Potency": "inconclusive [phenotype inactive, single point]"}
{"smiles": "CC1=C(C(=O)N2CCN(c3ccc(Cl)cc3)CC2)C2(CCC(C)CC2)OC1=O", "note": "(stereo not drawn)", "Potency": "inconclusive [phenotype inactive, single point]"}
{"smiles": "COc1cccc(-c2oc3ccc(C)cc3c(=O)c2O)c1", "Potency": "inconclusive [phenotype inactive, single point]"}
{"smiles": "Cn1c(C(=O)NCCc2ccccc2)cc2sc(Cl)cc21", "activity change, negative = inhibition": "inactive: 14.3%"}
{"smiles": "CCOCCCn1c(SCC(=O)Nc2ccc(CC)cc2)nc2ccccc2c1=O", "Potency": "inconclusive [phenotype inactive, single point]"}
{"smiles": "CCc1cc(=O)[nH]c(SCc2nc(-c3cccc(Cl)c3)no2)n1", "activity change, negative = inhibition": "inactive: -16.7%"}
{"smiles": "Cc1cc2c(c3oc(=O)c4ccccc4c13)CN(Cc1ccc(F)cc1)CO2", "Potency": "inconclusive [phenotype inactive, partial curve]"}
{"smiles": "Cc1nc2c(C(=O)N(C)Cc3ccccc3)c[nH]n2c(=O)c1Cc1ccc(Cl)cc1", "Potency": "inconclusive [phenotype inactive, single point]"}
{"smiles": "O=C(CCn1cnc2ccccc2c1=O)NCc1ccccc1", "activity change, negative = inhibition": "inactive: -4.3%"}
{"smiles": "CCc1ccc(NC(=O)c2cc3sc(Cl)cc3n2C)cc1", "Potency": "inconclusive [phenotype inactive, single point]"}
{"smiles": "Cc1ccc(CNC(=O)CN(c2ccc(Cl)cc2Cl)S(=O)(=O)c2ccccc2)cc1", "Potency": "inconclusive [phenotype inactive, single point]"}
{"smiles": "O=C(COC(=O)C(Cc1c[nH]c2ccccc12)NC(=O)c1ccc(Br)cc1)c1ccc(Cl)cc1", "note": "(stereo not drawn)", "activity change, negative = inhibition": "inactive: -5.03%"}
{"smiles": "CCOc1ccc(NC(=O)C2CCN(S(=O)(=O)c3cc(-c4noc(C)n4)ccc3C)CC2)cc1", "activity change, negative = inhibition": "inactive: -42.5%"}
{"smiles": "Cc1cccc(Cn2cc(C(=O)c3ccccc3)c(=O)c3cc4c(cc32)OCO4)c1", "activity change, negative = inhibition": "inactive: 2.02%"}
{"smiles": "COc1ccc(C(=O)c2oc3ccccc3c2NC(=O)c2ccc(F)cc2)cc1", "activity change, negative = inhibition": "inactive: -19.5%"}
{"smiles": "CCC(=O)N1CCc2cc(S(=O)(=O)CCC(=O)Nc3ccc(Cl)c(C(F)(F)F)c3)ccc21", "Potency": "active: 11.2 µM"}
{"smiles": "CCCCCn1cc2c(c1-c1ccc(Cl)cc1)c(=O)n(C)c(=O)n2C", "Potency": "inconclusive [phenotype inactive, full curve]"}
{"smiles": "Cc1ccccc1C(=O)Nc1ccc(C(=O)OCc2cc(=O)n3nc(C(C)C)sc3n2)cc1", "Potency": "inconclusive [phenotype inactive, single point]"}
{"smiles": "CCOc1ccc(CNC(=O)c2sc3ncnc(N(C)C4CCCCC4)c3c2C)cc1", "Potency": "inconclusive [phenotype inactive, single point]"}
{"smiles": "COc1ccc(-c2[nH]c3ccccc3c2SCCNC(=O)c2ccc(S(=O)(=O)N(C)C)cc2)cc1", "activity change, negative = inhibition": "inactive: -19.9%"}
{"smiles": "CC(=O)c1ccc(N2CCN(C(=O)c3ccc(Cn4c(=O)[nH]c5ccccc5c4=O)cc3)CC2)cc1", "Potency": "inconclusive [phenotype inactive, partial curve]"}
{"smiles": "CCN1CCC(N(Cc2ccc(F)cc2)C(=O)Nc2cc(Cl)ccc2C(=O)OC)CC1", "Potency": "inconclusive [phenotype inactive, single point]"}
{"smiles": "COc1cc(O)ccc1-c1nc2ccc(Br)cn2c1Nc1ccccc1C", "Potency": "inconclusive [phenotype inactive, single point]"}
{"smiles": "CCOC(=O)C1CCN(C(=O)c2ccc3c(=O)n4nc(Nc5ccccc5)sc4nc3c2)CC1", "Potency": "active: 5.32 µM"}
{"smiles": "CCOc1ccc(NC(=O)c2sc3nc4n(c(=O)c3c2C)CCCC4)cc1", "activity change, negative = inhibition": "inactive: -138%"}
{"smiles": "COc1cccc(NC(=O)CSc2nnc3[nH]c(=O)cc(-c4ccccc4)n23)c1", "activity change, negative = inhibition": "inactive: -89.4%"}
{"smiles": "CCOC(=O)C1CCCN(C(=O)c2ccc(C)c(NC(=O)c3nsc4ccccc34)c2)C1", "note": "(stereo not drawn)", "Potency": "inconclusive [phenotype inactive, single point]"}
{"smiles": "COc1ccc(C(=O)Nc2cc(-c3nc4ncccc4o3)ccc2C)cc1Br", "Potency": "inconclusive [phenotype inactive, single point]"}
{"smiles": "O=C(COc1ccc(Cl)cc1)Nc1ccc(O)c(-c2nc3ccccc3s2)c1", "Potency": "inconclusive [phenotype inactive, single point]"}
{"smiles": "CCCCOc1ccc(C(=O)NCCS(=O)(=O)N2CCN(c3ccccc3OC)CC2)cc1", "Potency": "inconclusive [phenotype inactive, partial curve]"}
{"smiles": "O=c1c2sc3ccccc3c2n(Cc2ccc(F)cc2)c(=O)n1Cc1ccco1", "Potency": "inconclusive [phenotype inactive, single point]"}
{"smiles": "COc1ccc(Cl)cc1NC(=O)CSc1nc2ccccc2nc1N1CCCCC1", "Potency": "active: 12.7 µM"}
{"smiles": "Cc1nn(C)c2c1c(C(F)(F)F)cc(=O)n2C(C)C(=O)N1CCN(c2ccccc2)CC1", "note": "(stereo not drawn)", "Potency": "inconclusive [phenotype inactive, single point]"}
{"smiles": "Cn1c(=O)c2c(ncn2CC(=O)Nc2cc(Cl)cc(Cl)c2)n(C)c1=O", "Potency": "inconclusive [phenotype inactive, partial curve, poor fit]"}
{"smiles": "Cc1ccccc1CNC(=O)C1CCCN(c2nnc(-n3c(C)ccc3C)s2)C1", "note": "(stereo not drawn)", "Potency": "active: 15.6 µM"}
{"smiles": "COc1ccc(-c2nc(SCC(=O)Nc3cccc(C(C)=O)c3)n[nH]2)cc1", "activity change, negative = inhibition": "inactive: 9.42%"}
